Data published in the supplement of paper PMC8277577.
Recombinant human monoclonal antibodies (heavy:light variable regions). ELISA EC50 on the named antigen, from 10 µg/ml down; lower = stronger. No active / inactive call.

Molecular target: SARS-CoV-2 Wuhan-Hu-1 spike receptor-binding domain
Assay: ELISA binding EC50; higher = weaker binding; ELISA of recombinant human antibody on coated antigen, from 10 µg/ml in fourfold dilutions; four-parameter fit.

Row | Binder | ELISA binding EC50 [ng/mL]
1 | C1021 (protein) chain 1: QVQLVQSGAELKKPGASVKVSCKASGYTFSTYYIHWVRQAPGQGLEWMGIINPEAGSTSYAQKFQGRVTMTTDTSTSTVYMELISLRSQDTAIYYCARDAVGVPAINSLEYWGQGTLVTVSS chain 2: EIVLTQSPATLSLSPGERATLSCRASQSISSYLAWYQQKPGQAPRLLIYDASNRATDISARFSGSGSGTDFTLTISSLEPEDFAVYYCQHRSNWPPSFTFGGGTKVEIK | 2.53
2 | C1023 (protein) chain 1: QVQLVQSGAEMKKPGASVKISCKASGDTFTTNYFHWVRQAPGQGLEWMGIINPSAGSTTYAQRFQGRVTMTGDSSTNTVYLELRSLRSEDTAMYFCAKGSYIPAMRSSFDPWGQGTLVTVSS chain 2: EIVLTQSPGTLSLSPGERATLSCRASQSVSHRYLAWYQQKPGQAPRLLIDGASNRATGIPDRFSGSGSGTDFTLTISRLEPEDFGVYYCQQYGSSPPFTFGQGTKLEIK | 1.13
3 | C846 (protein) chain 1: QVQLVESGGGVFQPGRSLRLSCAASGFNFRTYAMHWVRQAPGKGLEWVAVILDDGSGKFYADSVKGRFTVSRDNSKHTLYLQMTSLSAEDTAIYFCARDQGTATTYFDHWGQGTLVTVSS chain 2: DIQMTQSPSSLSASVGDRVTITCRASQSIRTFLSWYQQKAGKAPKLLIYTASSLQNGVPSRFSGSGSGTDFTLTISSLQPEDFATYYCQQSYETPPWTFGQGTKVEIK | 3.48
4 | C1018 (protein) chain 1: QVQLVESGGGVVQPGRSLRLLCAASGFTFNTHGMHWVRQAPGKGLEWVAVIWFDGSNKYYADSVKGRFTISRDNSTNTLYLQMNSLRAEDTAVYYCARVYGGLPYYYAIDVWGQGTTVTVSS chain 2: QSVLTQPPSVSGAPGQRVTISCAGSSSNIGAGYGVHWSQQLPGRPPKLLIYGDSNRPSGVPDRFSGSNSGTSASLAITGLQAEDEAVYYCQSYDRSLRAWVFGGGTKLSVL | 3.09
5 | C845 (protein) chain 1: QVQLQESGPGLVKPSQTLSLTCTVSGASISSGEYYWSWVRQPPGKGLEWVGYIYYSGSTYYNPSLKSRVTISVDTSKNHFSLKLKSLTAADTAVYFCATGGLSAFGELFPHDKWGQGTLVTVSS chain 2: EIVLTQSPATLSLSPGERATLSCRASQSVGSDLAWYQQKPGQAPRLLIYDTSNRATGIPARFSGSGSGTDFTLTISSLDPADFAVYYCQQRTNWLFSFGPGTKVDIK | 1.39
6 | C909 (protein) chain 1: QVQLVQSGAEVKKPGASVKVSCRASGYTFPNYDLNWVRQATGQGLEWMGWMNPNSGNTGYAQKFQGRITMTRITSISTAYMELSSLRSEDTAVYYCARGRANWNSNFLLDSWGQGTLVTVSS chain 2: QSALTQPASVSGSPGQSITISCTGTSSDVGGYNLVSWYQQYPGNVPKLMIYEDAKRPSGVSNRFSGSKSANTASLTISGLQAEDEADYYCCSYAGSSTRYVFGTGTKVTVL | 3.24
7 | C903 (protein) chain 1: EVQLVESGGGLIQPGGSLRLSCAASGFIVSRNYMSWVRQAPGKGLEWVSIIYSGGSTFYADSVKGRFTISRDNSKNTVYLQMNSLRAEDTAVYYCARDYGDFYFDYWGQGTLVTVSS chain 2: EIVLTQSPGTLSLSPGERATLSCRASQSVSSSYLAWYQQKPGQAPRLLIFDVSSRATGIPDRFSGSGSGTDFTLTISRLEPEDFAVYYCQQYGSSPRTFGQGTKVEIK | 2.54
8 | C904 (protein) chain 1: QVQLQQWGAGLLKPSETLSLTCAVNGGSLSLYYWSWIRQSPGKGLEWIGEINHFGGSDYKPSLKSRVSISVDTSTNQFSLKLSSVTAADTAVYYCARKPLLHSNISPGAFDIWGQGTMVTVSS chain 2: EIVLTQSPGTLSLSPGERATLSCRASQSVAGSYLAWYQQKPGQAPRLLIYGASSRATGVPDRISGSGSGTDFTLTISRLEPEDFAVYYCQQYTNTPRTFGGGTKVEI | 3.31
9 | C905 (protein) chain 1: QVQLQESGPGLVTPSQTLSLTCSVSGGSIHSRDFYWGWIRQHPGKGLEWIGHIYYTGNTYYNPSLKSRVTISADTSKNQFSLKLSSVTAADTAVYYCARATVVITLHWFDPWGQGTLVTVSS chain 2: NFMLTQPHSVSESPGKTVTISCTGSGGSIASNYVQWYQQRPGSAPTTVIYEDNERPSGVPDRFSGSIDSSSNSASLTISGVKTEDEADYFCQSYDVGNPVIFGGGTKLTVL | 3.06
10 | C1019 (protein) chain 1: QVQLVESGGGVVQPGTPLRLSCAASGFTFSSYAMHWVRQAPGKGLEWVAMISYDGGNKYYADSVKGRFTISRDNSKNTLFLQMNSLRGEDTAVYYCARSFSIRIGHKDNWGQGTLVTVSS chain 2: NFMLTQPHSVSESPGKTVTISCTGSSGSIANNYVQWYQQRPGSAPTPVIYEDDQRPSGVPDRFSGSIDSSSNSASLSISGLKTEDEADYYCQSYDSTNFWVFGGGTKLTVL | 2.8
11 | C1024 (protein) chain 1: QVQLVESGGGVVQPGRSLRLSCAASGFTFSDYAMHWVRQAPGKGLEWVAMISYDGNSQYYADSVKGRFTISRDNSKNTLYLQMNILRPEDTAVYYCARTFSIRIGHHDYWGQGTLVTVSS chain 2: NFMLTQPHSVSESPGKTVTISCTGSSGSIASNYVHWYQQRPGSAPTTVIFEDNQRPSGVPDRFSGSIDSSSNSASLTISGLKTEDEADYYCQSYDSSSFWVFGGGTKLTVL | 2.37
12 | C1020 (protein) chain 1: QVQLVQSGAEVKKPGASVKISCKASGYSFSNYYIHWVRQAPGQGLEWMGIINPSGNSISYAQKFQGRVTMTGDTSTSTVYMELSSLRSEDTAVYYCARSVFPVPAAGGCDYWGQGTLVTVSS chain 2: DIQMTQSPSSLSASVGDRVTITCRASQSITTSLNWYQQKPGKAPKLLIYSASTLESGVPSRFSGSGSGTDFTLTISSLQPEDFATYYCQQTYRAPPYTFGQGTKLEIK | 2.06
13 | C1014 (protein) chain 1: QVQLQESGPGLVRPSQTLSLTCTVSGGSIGSGAYWSWIRQHPAKGLEWIGYVYYSGSTFYNPSLETRVSISVDISKDQFSLELTSVTVADTAVYYCAREKIEVVSIEMRPHYYGIDVWGQGTTVTVSS chain 2: EIVMTQSPATLSVSPGERATLSCRASQSISSNLAWYQQKPGQPPRLLIYGASTRATGIPARFSGSGSGTEFTLTISSLQSEDIAVYYCQHYNNWPPWTFGQGTKVDIK | 2.95
14 | C1022 (protein) chain 1: QVQLVQSGAEVKTPGASVKVSCQASGDTFTSQYLHWVRQAPGQGLEWMGIINPTAGSTTYAQKFQGRVTMTRDTSTSTVYMELRSLRSEDMAVYYCARGGFIPMVRGFIDHWGQGTLVTVSS chain 2: QSALTQPASVSGSPGQSITISCTGTSSDVGGYNYVSWYQQHPGKAPKLMIYDVSNRPSGVSTRFSGSKSGNTASLTISGLQAEDEADYYCSSPTSSNTHVFGTGTKVTVL | 1.66
15 | C1013 (protein) chain 1: QVQLVQSGVEVKKPGSSVKVSCKASGGTFTDYAFSWVRQAPGQGLEWMGGIVPIFATPDYAEKFRGRVTITADESTSTAYMELSTLKSEDTAVYYCARASLTLPIRAAPRFWFDAWGQGTLVTVSS chain 2: EIVMTQSPATLSVSPGERATLSCRASQGVSTHLAWYQQKPGQAPRLLIYGASTRATGIPARFSGSGSGTEFTLTISSLQSEDFAVYYCQQYHKWPPALTFGGGTKVEIK | 8.92
16 | C910 (protein) chain 1: QVQLVQSGAAVKKPGASVKVSCKASGYTFTSYDINWVRQAPGQGLEWMGWMNPNSGNTGFAQRFQGRATLSRDTSITTAYMELTTLRSEDTAVYYCARGRANYNSKFLLDNWGQGTLVTVSS chain 2: QSALTQPASVSGSPGQSITISCTGTSSDVGSYNLVSWYQQHPGTAPKLMIYEGSKRPSGVSDRFSGYKSGNTASLTISGLQADDEADYYCCSFAGSTTRYVFGTGTRVTVL | 2.47
17 | C907 (protein) chain 1: QVQLQESGPGLVKPSETLSLTCTVSGGSITSYYWTWIRQSPGKGLEWIGYIYYIGSTNYNPSLKSRLTISLATSKNQFSLRLNSVTAADTAVYYCASYYNDTSGYSYGLDVWGQGTTVTVSS chain 2: DIQMTQSPSSLSAFVGDRVTITCRAGQSISSYLHWYQQKPGKAPKLLIYATSTLQSGVPSRFSGRGSGTDFTLTISGLQPEDFATYYCQQSYSTPQTFGQGTKVEIK | 3.71
18 | C1016 (protein) chain 1: QVQLQESGPGLVKPSGTLSLTCAVSGGPISSNHWWSWVRQPPGKGLEWIGEVYRNGNTNYHPSLKSRVTMSIDNSKNQFSLSLTSVTAADTAVYYCARGGDLAMGPEYLDFWGQGTLVTVSS chain 2: QSALTQPASVSGSPGQSITISCTGTSSDVGANNYVSWYQQHPGKAPKLMIYDVINRPSGVSDRFSGSKSGNTASLTISGLQAEDEADYYCSSFSTSSTLLFGGGTKLTVL | 2.16
19 | C908 (protein) chain 1: EVQLVQSGAEVKKPGESLKISCKASGYSFTIYWIGWVRQMPGKGLEWMGIIYPGESETRYSPSFQGQVTISADKSISTAYLQWRSLKASDTAMYYCARGGPPGGVKLELTDYWGQGTLVTVSS chain 2: not shown | 1.27
20 | C906 (protein) chain 1: EVQLVESGGGLIKPGRSLRLSCTASGFTFGDYAMTWFRQAPGKGLEWVGFIRSKAYGGTTGYAASVKYRFTISRDDSKSIVYLQMDSLKTEDTAVYYCTRWDGWSQHDYWGQGTLVTVSS chain 2: DIVMTQSPLSLSVTPGEPASISCRSSQSLLHSNGINYFDWYLQKPGQSPQLLIYLGSNRASGVPDRFSGSGSGTDFTLKISRVEAEDVGVYYCMQVLQIPYTFGQGTKLEI | 1.07
